Results: the RNAGym collection of RNA variant scans (doi:10.7554/elife.90254)
Read counts are not given, so values of variants with three or more changes are uncertain.

B1: LINE1-mini (parent)
chain: GGCAGAGCUCAACACAGCGUGGCAAAGUGGCUGUGGCUAGACUGCC

Variants of: B1
Test: self-cleavage, relative activity (ratio to wild type); higher = more cleavage; in vitro, sequencing; the parent is a self-cleaving ribozyme
With G5A G7U A11U the self-cleavage was 0.14.
G2C G5A C18G gave a self-cleavage of 0.04.
Variant G5C C23A C31U has a self-cleavage of 0.02.
In the case of A6U G7U A16U A24U U34G, the self-cleavage is reported as 0.07.
Variant G7C C15U G33A has a self-cleavage of 0.19.
In the case of G2A A11U C15G, the self-cleavage is reported as 0.04.
With C8A U9A A16U A26G G33U A39G the self-cleavage was 0.05.
C8G G19U G21C G40C showed a self-cleavage of 0.01.
For A14G C37U U43A, the self-cleavage was 0.18.
Variant G33U A41G U43A has a self-cleavage of 0.04.
Work on U32C G33C A41G yielded a self-cleavage of 0.04.
Variant C18U G22U C23U C31A G33U has a self-cleavage of 0.02.
Work on G5A C10A C13U A16G G19A G30U yielded a self-cleavage of 0.04.
For G2A G36U A41G, the self-cleavage was 0.08.
For A4U G29U A41G, the self-cleavage was 0.12.
For G2C C3U G5U C8A G30C U32C, the self-cleavage was 0.27.
Work on C18A A25G C31U yielded a self-cleavage of 0.04.
With G29U U38G G40U the self-cleavage was 0.03.
Variant C15A A16U U28A U43C G44A has a self-cleavage of 0.01.
In the case of G1A G2U G17C, the self-cleavage is reported as 0.15.
G27U G30U G36U showed a self-cleavage of 0.08.
A4G G19A A26G C45U gave a self-cleavage of 0.13.
In the case of C8A A11C G22C, the self-cleavage is reported as 0.02.
Work on A24U U32A A41U C45U yielded a self-cleavage of 0.05.
For G17U U28A C31A G35A, the self-cleavage was 0.12.
For C10U G22U G36C, the self-cleavage was 0.03.
G2U C10A G27C G29C gave a self-cleavage of 0.01.
With G7C G30U G35U G40A the self-cleavage was 0.1.
Variant C8A C13A A14U G17A G27A U38A has a self-cleavage of 0.17.
Work on A4C G7U U28A C37G A41U yielded a self-cleavage of 0.03.
Work on G2U G5U G19U yielded a self-cleavage of 0.02.
For A24G U32A U34G C45G, the self-cleavage was 0.
C13U U32A G35U showed a self-cleavage of 0.
With C15U C18A C23A A26U C37A A39G G44U the self-cleavage was 0.07.
U20G G36U G40C showed a self-cleavage of 0.13.
Variant G2C A4U C13A A16C G27U has a self-cleavage of 0.07.
In the case of C13A U34G G36U, the self-cleavage is reported as 0.33.
In the case of G1U A12C G27C G29A U34G, the self-cleavage is reported as 0.01.
U9G A11U G21U U34A C37U showed a self-cleavage of 0.01.
With G2A G22A A25C A41C the self-cleavage was 0.11.
In the case of A11U C18A A26G, the self-cleavage is reported as 0.12.
A4U C10A A12C G17A A25G G27A gave a self-cleavage of 0.03.
U28G G33A G35C gave a self-cleavage of 0.03.
A16C G19A G30A gave a self-cleavage of 0.14.
With G2U G19U G30A the self-cleavage was 0.04.
Variant G1U U20A G21A has a self-cleavage of 0.1.
Work on C8U A14G U20C U43A G44C yielded a self-cleavage of 0.03.
For G17U U28A G36A, the self-cleavage was 0.04.
In the case of U9C G36U A39U G44U C45U, the self-cleavage is reported as 0.05.
G2U C15A G29U G33C G36A A39C gave a self-cleavage of 0.01.
U9G C23U C31A showed a self-cleavage of 0.05.
With C10A A11C C15A the self-cleavage was 0.
C18G A24G G29C A41G gave a self-cleavage of 0.07.
With G2A C10A G44A the self-cleavage was 0.05.
Work on G2C C8A U20A yielded a self-cleavage of 0.1.
With C3G U20A G21C G29A U34G the self-cleavage was 0.03.
In the case of A11G A24C U28A U32G, the self-cleavage is reported as 0.01.
Variant C3G C8U C45A has a self-cleavage of 0.28.
For A24G A26G G40C C42A, the self-cleavage was 0.04.
C10A A16G U20A showed a self-cleavage of 0.01.
Work on G27C G30C U34G yielded a self-cleavage of 0.11.
For A14G A16G A24U A26U G44A, the self-cleavage was 0.03.
With G2U C8A U9C the self-cleavage was 0.01.
C3A A24U A26G gave a self-cleavage of 0.33.
C10G G27U G35C A39U showed a self-cleavage of 0.
For C8U C15G G44U, the self-cleavage was 0.25.
In the case of C3U G21C G33A, the self-cleavage is reported as 0.07.
For A12C U20C G21C G29U, the self-cleavage was 0.
C13A C15A A24C gave a self-cleavage of 0.03.
For C3G C18U C23A U32A C45U, the self-cleavage was 0.06.
For C10G G17U G22U G35A U43G, the self-cleavage was 0.02.
Work on G5U G7U C42U yielded a self-cleavage of 0.03.
C3U C10G A12U A25U G29A showed a self-cleavage of 0.02.
Variant A14C A25G G30A has a self-cleavage of 0.03.
Variant A12U A14G C18A G33A U38G has a self-cleavage of 0.02.
With U9C G21A C31U the self-cleavage was 0.02.
G19U A26U G30C showed a self-cleavage of 0.43.
A4C G7U G40A gave a self-cleavage of 0.22.
Work on C8U C10G U20A U38C yielded a self-cleavage of 0.01.
Variant G2A G7A C42U U43G has a self-cleavage of 0.56.
With A4G A6G A16U G27U G33A the self-cleavage was 0.03.
With G21U G36U A39G G44C the self-cleavage was 0.03.
For G5C C15G G21C A41G, the self-cleavage was 0.03.
With G1U U9G C23G C37G G40C C45A the self-cleavage was 0.
Variant A6C C18G U43C has a self-cleavage of 0.07.
With G5A A14G U28A the self-cleavage was 0.1.
C13A G22A A25U showed a self-cleavage of 0.08.
Variant C18U G19U A24G C45U C46G has a self-cleavage of 0.02.
With G1C C15A G27C G36C the self-cleavage was 0.01.
For U9G A16U C23A U43C, the self-cleavage was 0.01.
In the case of A6U G7U U9C G40C C45A, the self-cleavage is reported as 0.01.
Work on A6C U20C G33A yielded a self-cleavage of 0.02.
G7A A16U A39C gave a self-cleavage of 0.09.
G5U A41C G44U gave a self-cleavage of 0.04.
Variant G17C G19U C37G has a self-cleavage of 0.02.
G27U G35U U38A gave a self-cleavage of 0.48.
G36C A39G U43C gave a self-cleavage of 0.06.
Work on C13A C15U U38G yielded a self-cleavage of 0.03.
Work on C10A C15A A16G G17C U38C yielded a self-cleavage of 0.04.
Variant A12U A25C C37A has a self-cleavage of 0.02.
G2A C10U A41C showed a self-cleavage of 0.02.
C15U G21C C45A showed a self-cleavage of 0.4.
For G7C C10A A41G, the self-cleavage was 0.01.
With G17U C23U U34C G44U the self-cleavage was 0.01.
Work on G2U C15U G17U C18U U20C yielded a self-cleavage of 0.03.
C13A A26U U28G A41G U43A gave a self-cleavage of 0.11.
G29A C31U U34G gave a self-cleavage of 0.09.
G19U G27A U32A C46G gave a self-cleavage of 0.03.
With C10A A16G U28C G33C A39G the self-cleavage was 0.01.
Work on C8G A16G U32G yielded a self-cleavage of 0.04.
Work on A12U G21A G35U A41U yielded a self-cleavage of 0.08.
G2C U20A G22A A24U gave a self-cleavage of 0.1.
For U9C C10A C31U, the self-cleavage was 0.01.
With A4U U20G G22U the self-cleavage was 0.06.
With A16C A26G U43C the self-cleavage was 0.01.
In the case of A16U G30A G35U, the self-cleavage is reported as 0.04.
C3G A11U U20G G22U U34A gave a self-cleavage of 0.05.
C23G C31U A39G G40C U43C G44A gave a self-cleavage of 0.01.
G1A G2A G7U C8G G33C C42G showed a self-cleavage of 0.46.
G7A C10U G35A C42A G44A gave a self-cleavage of 0.05.
Work on C18G A26U U43A yielded a self-cleavage of 0.04.
In the case of G1A C15G G19C U32A G40A, the self-cleavage is reported as 0.03.
Variant C3G C8G U20C has a self-cleavage of 0.01.
Variant U9G A16C A25G C31U has a self-cleavage of 0.02.
Variant C3G A6U G17C G40A has a self-cleavage of 0.01.
Work on G22A G30C C37A U38C yielded a self-cleavage of 0.04.
Work on C10U G19U A26G U28G yielded a self-cleavage of 0.18.
For G5C G22U C31A U32G, the self-cleavage was 0.25.
In the case of G19C U28C U32C G33A, the self-cleavage is reported as 0.12.
Work on G5A C8A G22A C37A C42A yielded a self-cleavage of 0.04.
C13A G17A U28C gave a self-cleavage of 0.08.
Work on C15U C23A G35C C46U yielded a self-cleavage of 0.05.
For G7A A12C G17C G22U A24C U43C, the self-cleavage was 0.02.
In the case of C3A U9A U20A C37A C42U, the self-cleavage is reported as 0.3.
A4U A12G G19C A39U gave a self-cleavage of 0.02.
G1U A6U G33C A39U G40A C46G gave a self-cleavage of 0.05.
In the case of G1U A6C C8U C13G C23A, the self-cleavage is reported as 0.34.
Work on A26C U32G U38G yielded a self-cleavage of 0.02.
With G1A A16U U28A the self-cleavage was 0.02.
In the case of A24C G27U U43C, the self-cleavage is reported as 0.09.
With G21U G27A U38C the self-cleavage was 0.87.
C15G G19U G33U C46G showed a self-cleavage of 0.08.
G7C G19C G33U C37U showed a self-cleavage of 0.08.
C8G U9G A41G gave a self-cleavage of 0.03.
With U9G G29C C37G C42A the self-cleavage was 0.01.
Work on C3G G5U C37A U38C G40U yielded a self-cleavage of 0.02.
Variant G5U C8A G36A G44U has a self-cleavage of 0.09.
In the case of U20C G36U G44A, the self-cleavage is reported as 0.02.
Work on A4G G5U U9G C42G C46U yielded a self-cleavage of 0.02.
With G30U C31A U32G G36C the self-cleavage was 0.06.
For C3A G30C G44C, the self-cleavage was 0.18.
A12U A14C A16U A39C showed a self-cleavage of 0.09.
Work on C10U G35U U38G C45U yielded a self-cleavage of 0.
With C18U G21A A24U G35A the self-cleavage was 0.2.
With C23A G29A C37A G40U C46U the self-cleavage was 0.07.
C18G G30U C31U U32A showed a self-cleavage of 0.03.
For C10A A11G A14C G30A G36A U38G A41G, the self-cleavage was 0.
C8A C23G C31U G33A U34G C37U showed a self-cleavage of 0.11.
Variant C15U C18A G29C C45U has a self-cleavage of 0.07.
With C8U G19A G22C G40U the self-cleavage was 0.06.
Variant G2U U9G G19U U28G U43C has a self-cleavage of 0.02.
With C8A U9C G22A U34G the self-cleavage was 0.03.
In the case of G27A A39G C46U, the self-cleavage is reported as 0.
Work on G7U G19U G33A U38C yielded a self-cleavage of 0.07.
With G17A G29U C37G the self-cleavage was 0.01.
In the case of G1C G33C A41G C46U, the self-cleavage is reported as 0.02.
In the case of C3U A6G A16U C23G G35A, the self-cleavage is reported as 0.01.
